This assay has as its target T1, mouse BCMA (mouse, UniProt O88472 1-49, limits assumed).
T1 chain (looked up): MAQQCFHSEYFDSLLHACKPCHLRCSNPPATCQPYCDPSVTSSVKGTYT
Description: ELISA (OD450), single point, coats human BCMA, mouse BCMA, blank. On the technique in general: An ELISA detects its analyte on a solid surface through an enzyme-linked reagent.

B1: ET140-163 (scFv)
scFv: QPVLTQPPSASASLGASVTLTCTLSNDYTNYKVDWYQQRPGKGPRFVMRVGPGGIVGSKGDGIPDRFSVLGSGLNRYLTIKNIQEEDESDYHCGADHGTGSNFVYVFGGGTKLTVLGSRGGGGSGGGGSGGGGSLEMA[letters of about 100 residues omitted]SSYHLYGYDSWGQGTLVTVSS
notes: also called ET140-163 scFv; ET140-13 scFv
In the case of B1, the binding result is “no binding”.

Values taken from patent US20210346432A1 (Memorial Sloan Kettering, published 2021).
